This is one part of the list.

For one experiment, the system named is HSkMC. Briefly: cytotoxicity call (relative viability < 0.9). The following applies: 10 µM.
A further experiment deals with HepG2. The experiment can be described thus: cytotoxicity call (relative viability < 0.9). The following applies: 10 µM.
Another experiment has as its system S. aureus RN4220. Briefly: growth inhibition call (relative growth <= 0.2). The following applies: 50 µM.

Regarding `C[C@@H]1CN([C@H](C)CO)C(=O)c2cc(NS(=O)(=O)c3cccs3)ccc2O[C@@H](C)CCCCO[C@@H]1CN(C)CC1CCCCC1`, the cytotoxicity call in the experiment with HSkMC and in the experiment with HepG2 was “inactive” in each case. Besides, the growth inhibition call with S. aureus RN4220 is “inactive”.

Consider `C[C@H](CO)N1C[C@H](C)[C@H](CN(C)C(=O)Nc2ccccc2)Oc2ccc(NC(=O)Nc3cccc4ccccc34)cc2C1=O`, for which the cytotoxicity call in the experiment with HSkMC and in the experiment with HepG2 was “inactive” in each case. For the same molecule, the growth inhibition call with S. aureus RN4220 is “inactive”.

For `CN1C(=O)c2cc(NC(=O)C3CCOCC3)ccc2OC[C@H]2O[C@H](CC(=O)NCc3ccccc3F)CC[C@H]21`, the cytotoxicity call with HSkMC and in the experiment on HepG2 was “inactive” each time. In the experiment with S. aureus RN4220, the growth inhibition call is “inactive”.

`C[C@H](CO)N1C[C@H](C)[C@H](CN(C)S(=O)(=O)c2cccs2)Oc2ccc(NC(=O)CCCN(C)C)cc2C1=O`: the cytotoxicity call with HSkMC and with HepG2 was “inactive” each time. In addition, the growth inhibition call with S. aureus RN4220 is “inactive”.

Turning to `CN(C)CC(c1ccc(O)cc1)C1(O)CCCCC1.O=C(O)CCC(=O)O` (stereo unspecified), the cytotoxicity call in the experiment on HSkMC and in the experiment with HepG2 was “inactive” in each case. In the experiment on S. aureus RN4220, the growth inhibition call was “inactive”.

As for `C[C@@H]1ON(c2ccc(C(=O)OC(C)(C)C)cc2)[C@H](c2ccc(Br)cc2)[C@H]1C(=O)N1C(=O)OC[C@H]1Cc1ccccc1`, the cytotoxicity call with HSkMC and in the experiment on HepG2 was “inactive” each time. For the same molecule, the growth inhibition call with S. aureus RN4220 was “inactive”.

As to `Cc1noc(C)c1NC(=O)N(C)C[C@H]1Oc2c(NC(=O)C3CC3)cccc2C(=O)N([C@H](C)CO)C[C@@H]1C`, the cytotoxicity call in the experiment with HSkMC and in the experiment with HepG2 was “inactive” each time. In the experiment with S. aureus RN4220, the growth inhibition call is “inactive”.

Take `C[C@@H]1CN([C@@H](C)CO)S(=O)(=O)c2ccc(Br)cc2O[C@H]1CN(C)C(=O)c1ccccc1`: the cytotoxicity call in the experiment on HSkMC and with HepG2 was “inactive” each time. For the same molecule, the growth inhibition call with S. aureus RN4220 was “inactive”.

For the molecule `CN1CCN(C(=O)C[C@H]2CC[C@H]3[C@H](COc4ccc(NC(=O)C5CCOCC5)cc4C(=O)N3C)O2)CC1`, the cytotoxicity call with HSkMC and in the experiment on HepG2 was “inactive” each time. Besides, the growth inhibition call in the experiment on S. aureus RN4220 is “inactive”.

Turning to `C[C@H]1CN([C@@H](C)CO)C(=O)c2cc(NS(=O)(=O)c3ccc(F)cc3)ccc2O[C@@H]1CN(C)S(=O)(=O)c1ccccc1`, the cytotoxicity call with HSkMC and in the experiment with HepG2 was “inactive” in each case. For the same molecule, the growth inhibition call in the experiment on S. aureus RN4220 is “inactive”.

Take `CC[C@@H](C)NCCCCOc1ccc(Cl)cc1C(C)(C)C`: the cytotoxicity call in the experiment with HSkMC and with HepG2 was “active” in each case. Moreover, in the experiment with S. aureus RN4220, the growth inhibition call was “active”.

For the molecule `C[C@@H]1CN([C@H](C)CO)C(=O)c2cc(NC(=O)c3ccncc3)ccc2O[C@@H](C)CCCCO[C@H]1CN(C)Cc1ccccc1`, the cytotoxicity call with HSkMC and in the experiment with HepG2 was “inactive” in each case. The growth inhibition call in the experiment on S. aureus RN4220 was “inactive”.

As for `C[C@@H]1CN([C@H](C)CO)C(=O)c2cccc(NS(=O)(=O)c3cn(C)cn3)c2O[C@@H]1CN(C)C(=O)NC1CCCCC1`, the cytotoxicity call in the experiment on HSkMC (human skeletal muscle cells) and in the experiment on HepG2 was “inactive” in each case. Also, in the experiment on S. aureus RN4220, the growth inhibition call is “inactive”.

For `CCn1cc(C(=O)O)c(=O)c2cc(F)c(N3CCN(C)CC3)cc21.CS(=O)(=O)O`, the cytotoxicity call in the experiment with HSkMC and in the experiment with HepG2 was “inactive” each time. Further, in the experiment with S. aureus RN4220, the growth inhibition call is “active”.

For `C[C@@H]1CCCCO[C@H](CN(C)C(=O)Nc2ccccc2)[C@@H](C)CN([C@@H](C)CO)C(=O)c2cc(NC(=O)C3CCCCC3)ccc2O1`, the cytotoxicity call with HSkMC and in the experiment with HepG2 was “inactive” in each case. Moreover, the growth inhibition call in the experiment with S. aureus RN4220 is “inactive”.

For the molecule `C[C@@H]1CN([C@@H](C)CO)C(=O)c2cc(NC(=O)Nc3cccc4ccccc34)ccc2O[C@@H](C)CCCCO[C@H]1CN(C)S(=O)(=O)c1ccc(F)cc1`, the cytotoxicity call in the experiment with HSkMC and in the experiment with HepG2 was “inactive” in each case. In addition, the growth inhibition call in the experiment with S. aureus RN4220 was “inactive”.

Turning to `COc1ccc(NC(=O)N(C)C[C@@H]2OCCCC[C@@H](C)Oc3ccc(NC(=O)Nc4ccc5c(c4)OCO5)cc3C(=O)N([C@H](C)CO)C[C@@H]2C)cc1`, the cytotoxicity call in the experiment with HSkMC and in the experiment on HepG2 was “inactive” each time. Also, in the experiment with S. aureus RN4220, the growth inhibition call was “inactive”.

Take `C[C@@H]1CN([C@@H](C)CO)C(=O)c2cc(NC(=O)C3CCCCC3)ccc2O[C@@H](C)CCCCO[C@H]1CN(C)C(=O)Nc1cccc2ccccc12`: the cytotoxicity call with HSkMC and in the experiment on HepG2 was “inactive” in each case. In addition, in the experiment with S. aureus RN4220, the growth inhibition call is “inactive”.

With `C[C@H](CO)N1C[C@H](C)[C@@H](CN(C)CC2CCCCC2)OCCCC[C@H](C)Oc2ccc(N(C)C)cc2C1=O`, the cytotoxicity call with HSkMC and in the experiment with HepG2 was “inactive” throughout. Besides, the growth inhibition call in the experiment on S. aureus RN4220 was “inactive”.

In the case of `C[C@H]1CN([C@@H](C)CO)C(=O)c2cccc(NS(=O)(=O)c3ccc(F)cc3)c2O[C@H]1CN(C)S(=O)(=O)c1cn(C)cn1`, the cytotoxicity call with HSkMC and in the experiment on HepG2 was “inactive” in each case. The growth inhibition call with S. aureus RN4220 is “inactive”.

Take `O=C(C[C@H]1CC[C@@H]2[C@H](COC[C@@H](O)CN2C(=O)Nc2ccc(Cl)cc2)O1)NCCc1ccncc1`: the cytotoxicity call in the experiment with HSkMC and with HepG2 was “inactive” throughout. Moreover, in the experiment with S. aureus RN4220, the growth inhibition call is “inactive”.

`C[C@@H]1CN([C@@H](C)CO)C(=O)Cc2cc(NS(=O)(=O)c3ccc(Cl)cc3)ccc2O[C@H]1CN(C)Cc1ccc(-c2ccccc2)cc1`: the cytotoxicity call in the experiment with HSkMC and with HepG2 was “active” each time. Besides, in the experiment with S. aureus RN4220, the growth inhibition call was “inactive”.

Regarding `CCc1ccc(NC(=O)C2CCN(S(=O)(=O)c3c(C)[nH]c(=O)[nH]c3=O)CC2)cc1`, the cytotoxicity call in the experiment with HSkMC is “inactive”. In addition, the cytotoxicity call with HepG2 is “active”. Moreover, the growth inhibition call with S. aureus RN4220 was “inactive”.

For `C[C@H](CO)N1C[C@H](C)[C@H](CN(C)S(=O)(=O)c2cccc(F)c2)Oc2cc(C#CCN(C)C)ccc2S1(=O)=O`, the cytotoxicity call with HSkMC and with HepG2 was “inactive” throughout. Moreover, the growth inhibition call in the experiment with S. aureus RN4220 is “inactive”.

Regarding `COc1ccc(S(=O)(=O)N2C[C@H](O)COC[C@@H]3O[C@@H](CC(=O)NCCN4CCCCC4)CC[C@H]32)cc1`, the cytotoxicity call in the experiment with HSkMC and in the experiment with HepG2 was “inactive” throughout. In the experiment on S. aureus RN4220, the growth inhibition call was “inactive”.

Regarding `COc1ccc(S(=O)(=O)N(C)C[C@H]2OCc3cn(nn3)CCCC(=O)N([C@H](C)CO)C[C@@H]2C)cc1`, the cytotoxicity call with HSkMC and with HepG2 was “inactive” throughout. Further, the growth inhibition call in the experiment on S. aureus RN4220 is “inactive”.

For the molecule `C[C@@H]1CN([C@H](C)CO)C(=O)c2ccccc2-c2ccccc2CO[C@H]1CN(C)C(=O)Nc1cccc(Cl)c1Cl`, the cytotoxicity call in the experiment with HSkMC and in the experiment with HepG2 was “inactive” in each case. In addition, in the experiment with S. aureus RN4220, the growth inhibition call is “inactive”.

Values taken from the antibiotic and cytotoxicity screens of Wong et al. (2023).
